Several values for one entry are separate records, joined by “and”; a condition that tells them apart may be missing. Identical values can stand only once. Hit rate of the full screen: of about 220,000 compounds, about 16,000 (7.3%) were called active. The inconclusive results got no clear call from the source; some entries with a clear call stand among them for comparison. Calls follow the shape of the dose curve; as a rule, active = well fitted inhibition curve with a large enough effect (not every such curve was filed as active); inconclusive = small, poorly fitted or top-dose-only effect, or another doubt; inactive = no such curve, though single readings can be large or run the other way. Potencies of inconclusive entries are left out as doubtful fits.
biological target: Aldehyde dehydrogenase 1A1 (Homo sapiens) (UniProt P00352); assay: qHTS Assay for Inhibitors of Aldehyde Dehydrogenase 1 (ALDH1A1); conditions: Purified ALDH1A1, NADH fluorescence, propionaldehyde substrate; series mostly up to 75.3 µM; activity, negative = inhibition: at the top concentration;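 as to activity, negative = inhibition: plate controls were no enzyme wells and a reference inhibitor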
Potency is read from the fitted curve at half-maximal effect; tags tell the direction and shape of the fitted curve.

Sequence of UniProt P00352 (P00352 whole entry, looked up): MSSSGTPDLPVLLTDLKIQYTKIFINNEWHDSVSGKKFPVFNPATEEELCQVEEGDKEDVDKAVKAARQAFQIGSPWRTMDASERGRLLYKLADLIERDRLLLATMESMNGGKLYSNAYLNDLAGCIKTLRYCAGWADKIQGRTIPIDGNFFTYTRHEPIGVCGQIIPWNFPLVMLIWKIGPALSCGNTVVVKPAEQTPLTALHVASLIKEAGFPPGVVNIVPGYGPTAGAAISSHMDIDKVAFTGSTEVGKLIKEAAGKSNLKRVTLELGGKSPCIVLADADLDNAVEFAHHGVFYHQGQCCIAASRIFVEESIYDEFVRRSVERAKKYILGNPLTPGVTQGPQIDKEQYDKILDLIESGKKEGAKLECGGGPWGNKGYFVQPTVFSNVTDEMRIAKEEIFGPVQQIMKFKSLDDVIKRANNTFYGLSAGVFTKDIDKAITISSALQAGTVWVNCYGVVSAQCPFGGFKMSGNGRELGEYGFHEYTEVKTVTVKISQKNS

| Compound | Potency | activity, negative = inhibition |
| --- | --- | --- |
| O=C(Nc1ccc2c(c1)OCO2)C(c1ccccc1)N1CCC2(CC1)OCCO2 (stereo unspecified) | inconclusive [inhibitor, single point] | – |
| COc1cccc(C(c2sc3ncnn3c2O)N2CCc3ccccc3C2)c1 (stereo unspecified) | inconclusive [inhibitor, single point] | – |
| N#Cc1c(N2C(=O)Nc3ccccc3N2O)sc2c1CCCC2 | – | inactive: 0.213% |
| CCN1C(=O)c2cccc3c(S(=O)(=O)NCc4ccco4)ccc1c23 | inconclusive [inhibitor, partial curve] | – |
| CCOc1ccccc1C1CC(=O)NC(SCC(=O)Nc2nccs2)=C1C#N (stereo unspecified) | inconclusive [inhibitor, single point] | – |
| COc1ccc2nc(C)cc(SCC(=O)N3CCCCC3)c2c1 | inconclusive [inhibitor, single point] | – |
| O=C(OCn1nnc2ccccc2c1=O)c1cc(-c2ccccc2)nc2ccccc12 | inconclusive [inhibitor, partial curve] | – |
| CCn1c(=O)c2ccccc2n2c(SCC(=O)NCc3cccs3)nnc12 | inconclusive [inhibitor, single point] | – |
| CCOC(=O)Cc1cc(=O)n(-c2nc3ccccc3s2)[nH]1 | inconclusive [inhibitor, single point] | – |
| CCn1c(=O)c2cc(C(=O)Nc3cc(C)on3)sc2c2ccccc21 | inconclusive [inhibitor, single point] | – |
| CC1CCN(C2=C(NS(=O)(=O)c3ccc(Cl)cc3)C(=O)c3ccccc3C2=O)CC1 | inconclusive [inhibitor, single point] | – |
| CCOC(=O)c1[nH]c2ccc(OC)cc2c1NC(=O)CCN1CCCC(C)C1 (stereo unspecified) | inconclusive [inhibitor, single point] | – |
| Cc1cccn2c(=O)c(C=NCc3ccccc3)c(NCCO)nc12 | inconclusive [inhibitor, single point] | – |
| O=C1Nc2ccccc2C(O)(C(=O)NCc2ccco2)N1c1ccc(Cl)c(Cl)c1 (stereo unspecified) | active: 25.1 µM | – |
| O=C(O)/C=C/C(=O)NNC(=O)c1cccc(Br)c1 | active: 20 µM | – |
| O=C1c2ccccc2C(=O)N1c1ccc(Cc2ccc(N3C(=O)c4ccccc4C3=O)cc2)cc1 | – | inactive: -0.558% [at 13.5 µM] |
| Cc1ccc(NC(=O)COC(=O)C2CC3C=CC2C3)cc1S(=O)(=O)N1CCCCC1 (stereo unspecified) | inconclusive [inhibitor, single point] | – |
| O=C(Nc1cc(Cl)ccn1)C1(c2ccccc2)CC1(Cl)Cl (stereo unspecified) | – | inactive: 3.56% |
| O=C(CCc1ccc(O)c(O)c1)NNC(=S)Nc1ccc(Br)cc1Cl | active: 25.1 µM | – |
| Cc1cnc(CNc2nc(-c3ccc(C(=O)N(C)C)cc3)nc3ccccc23)cn1 | – | inactive: 4.76% |
| CCCCNC(=O)NC1CCCC1 | – | inactive: -3.35% |
| COc1ccc(CNc2ccnc(-c3ccccc3CN(C)C)n2)c(OC)c1 | – | inactive: 0.317% |
| Cc1ccc2cc(CN(Cc3nnnn3C3CCCCC3)CC3CCCO3)c(=O)[nH]c2c1 (stereo unspecified) | active: 8.91 µM | – |
| CCc1ccc(C(=O)CSC2=C(C#N)C(c3ccco3)C(C(C)=O)=C(C)N2)cc1 (stereo unspecified) | inconclusive [inhibitor, single point] | – |

| Compound | Potency | activity, negative = inhibition |
| --- | --- | --- |
| CCOc1cccc(CN2CCN(c3cccc(C(F)(F)F)c3)CC2)c1O | – | inactive: 8.77% |
| Cc1nnc(SCC(=O)N2CC(=O)Nc3ccccc32)n1C | – | inactive: 6.49% |
| O=C(CN(c1ccc(Cl)c(C(F)(F)F)c1)S(=O)(=O)c1ccccc1)N/N=C/c1cccc2c1OCCO2 | inconclusive [inhibitor, single point] | – |
| O=c1c(-c2cccs2)nc2cnc(Oc3ccccc3)nc2n1-c1ccccc1 | inconclusive [inhibitor, partial curve] | – |
| O=c1cc(N2CCOCC2)cnn1-c1ccccc1 | inconclusive [inhibitor, single point] | – |
| COc1ccc(NC(=O)CSc2nc(N)c(-c3ccccc3)c(=O)[nH]2)cc1 | inconclusive [inhibitor, partial curve] | – |
| Cc1cc(C)nc(-n2nc(C)cc2NC(=O)CN2CCc3ccccc3C2)n1 | active: 25.1 µM | – |
| O=C(CCCC(=O)N(CC(=O)NC1CCCC1)Cc1ccc2c(c1)OCO2)Nc1ccccn1 | – | inactive: -1.75% |
| CCN1C(=O)[C@H]2[C@@H]3[C@H](O)[C@H](O)CC(=O)[C@H]3CC[C@H]2C1=O | – | inactive: -2.92% [at 13.5 µM] and inactive: 3.18% [at 13.5 µM] |
| Cc1ccc(/C=N/n2cnc3sc(C)c(C)c3c2=O)o1 | inconclusive [inhibitor, single point] | – |
| COc1ccc(OC)c(CNC(=O)Cc2c(C(=O)O)[nH]c3ccccc23)c1 | – | inactive: 1.06% |
| COc1ccc(Cl)cc1NC(=O)CNc1ccccc1CN(C)C1CCCCC1 | active: 8.91 µM | – |
| CC(=O)NC(=S)c1c(N)n(Cc2ccccc2)c(=O)n(C)c1=O | inconclusive [inhibitor, single point] | – |
| COc1ccc(/C=C(\NC(=O)c2ccccc2)C(=O)N/N=C/c2sccc2C)cc1 | inconclusive [inhibitor, partial curve] | – |
| CCOC(=O)c1c(NC(=O)CN2CCOCC2)sc2c1CC(C)(C)OC2 | active: 14.1 µM | – |
| CCCCn1c(=O)[nH]c(=O)c2c1nc(-c1ccc(C)c([N+](=O)[O-])c1)n2CC | inconclusive [inhibitor, partial curve] | – |
| CCCCCC(=O)NC(=S)Nc1ccc(N2CCOCC2)cc1 | inconclusive [inhibitor, single point] | – |
| CCSc1ccc(-c2nn(-c3ccccc3)cc2/C=C(/C#N)C(=O)NCCCOC)cc1 | inconclusive [inhibitor, partial curve] | – |
| COCCCNC(=O)C1CCN(c2ncccn2)CC1 | inconclusive [inhibitor, single point] | – |
| CC(=O)N1CCN(C(=S)c2ccc([N+](=O)[O-])cc2)CC1 | active: 22.4 µM | – |
| COc1cc2nc(CN3CCC(C(O)(c4ccccc4)c4ccccc4)CC3)[nH]c(=O)c2cc1OC | – | inactive: 5.1% |
| Cc1cccc(OCC(=O)Nc2ccc(S(=O)(=O)Nc3ccccn3)cc2)c1 | – | inactive: 10.6% |
| CCC(C)NC(=S)N1CCN(Cc2ccc3c(c2)OCO3)CC1 (stereo unspecified) | inconclusive [inhibitor, single point] | – |
| O=C(CCS(=O)(=O)c1ccccc1)Nc1nc2c(s1)COc1ccccc1-2 | inconclusive [inhibitor, partial curve] | – |

| Compound | Potency | activity, negative = inhibition |
| --- | --- | --- |
| COc1ccc(O)c(-c2cn[nH]c2-c2cccs2)c1 | inconclusive [inhibitor, single point] | – |
| COc1cccc(-c2ccc(SCC(=O)N3CCN(c4ccccc4)CC3)nn2)c1 | inconclusive [inhibitor, single point] | – |
| COCCN=C1Sc2nc3c(C)cccc3cc2CN1Cc1ccco1 | active: 3.55 µM | – |
| Cc1cccc(S(=O)(=O)NC(Cc2c[nH]c3ccccc23)C(=O)O)c1 (stereo unspecified) | – | inactive: 12.6% |
| O=C(NNC1CC(=O)N(c2cccc(Cl)c2)C1=O)c1cccnc1 (stereo unspecified) | inconclusive [inhibitor, single point] | – |
| CN(C(=O)COC(=O)c1nc(Cl)c(Cl)c(Cl)c1Cl)C1CCS(=O)(=O)C1 (stereo unspecified) | – | inactive: -12.7% |
| C/C(=N\Nc1ccc(Cl)cc1)c1ccccn1 | inconclusive [inhibitor, single point] | – |
| C=CCn1c(SCC(=O)NC(=O)NCc2ccco2)nc2sc(CC)cc2c1=O | inconclusive [inhibitor, single point] | – |
| Cc1cccc(CNc2ncc(-c3cccc([N+](=O)[O-])c3)n2C)c1 | inconclusive [inhibitor, single point] | – |
| CC(=O)Nc1ccc2nc(-c3ccccn3)[nH]c2c1 | inconclusive [inhibitor, partial curve] | – |
| COC(=O)C1=C(C)N(CC(C)C)C(=O)/C1=C\c1cccs1 | inconclusive [inhibitor, single point] | – |
| COc1ccc(C(=O)Nc2cc3c(oc2=O)CCCC3=O)cc1 | inconclusive [inhibitor, partial curve] | – |
| CCOC(=O)c1sc2nc(N3CCCC3)c3c(c2c1N)CC(C)(C)OC3 | inconclusive [inhibitor, partial curve] | – |
| CCOC(=O)C1=C(C)N=c2s/c(=C3\C(=O)Nc4ccccc43)c(=O)n2C1c1ccc2c(c1)OCO2 (stereo unspecified) | – | inactive: 6.24% |
| CCNc1ncc2ncc(=O)n(CCOC)c2n1 | inconclusive [inhibitor, partial curve] | – |
| COc1ccc(NC(=O)CCSCCC(=O)Nc2ccc(OC)cc2OC)c(OC)c1 | – | inactive: -6.61% |
| Cc1cc(=O)oc2cc(OCCSc3nnc(-c4ccccc4)o3)ccc12 | inconclusive [inhibitor, partial curve] | – |
| Cc1cc(N2C(=O)C3CC=CCC3C2=O)cc(C)c1Br (stereo unspecified) | inconclusive [inhibitor, partial curve] | – |
| Cn1[nH]c(C(F)(F)F)cc1=O | – | inactive: 10.6% |
| CC(C)NC(=O)Cn1c(SCC(=O)N2CCCc3ccccc32)nc2ccccc21 | – | inactive: 2.49% |
| Cn1cccc1Cc1nnc(SCC(=O)Nc2ccc3c(c2)OCCO3)n1CCc1ccccc1 | active: 14.1 µM | – |
| COc1ccc2[nH]c3c(N4CCC(O)(c5cccc(C(F)(F)F)c5)CC4)ncnc3c2c1 | inconclusive [inhibitor, partial curve] | – |
| CC(C)(C)c1ccc2c(c1)C(c1ccc3c(c1)OCO3)CC(=O)O2 (stereo unspecified) | inconclusive [inhibitor, single point] | – |

From PubChem BioAssay AID1030 (National Center for Advancing Translational Sciences (NCATS), 2008)
